Test results as given in PubChem BioAssay AID1347073 (National Center for Advancing Translational Sciences (NCATS), 2019).
Screen size: about 45,000 compounds; about 200 (0.44%) were called active. About 7% were inconclusive and are not listed. Calls follow the shape of the dose curve; as a rule, active = well fitted activation curve with a large enough effect; inconclusive = small, poorly fitted or top-dose-only effect; inactive = no such curve, though single readings can be large or run the other way. This is one part of the list.

Test: qHTS of TDP-43 Inhibitors: NCGC Sytravon Library Screen; also: 0% is about no effect; nearly all actives have a fitted effect of over 55% in size
Details: yeast TDP-43 toxicity rescue, BacTiter-Glo growth, 24 h; series mostly up to 46.1 µM; growth rescue (activation): at the top concentration
How it was run: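 TDP-43-expressing yeast, pregrown in raffinose, seeded at OD600 0.02 in galactose medium with compound for 24 hr at 30 deg C. Growth read by BacTiter-Glo luminescence, so rescue of toxicity appears as activation.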

Row | Compound | growth rescue (activation)
1 | CCN(CC)S(=O)(=O)c1ccc(C)c(NC(=O)CNCc2ccccc2OC)c1 | inactive: 2.46%
2 | CCN(Cc1ccccc1)C(=O)CSc1nc(C)cc(=O)[nH]1 | inactive: 10.8%
3 | O=[N+]([O-])c1ccc(Nc2ccc(F)cc2)nc1 | inactive: 19.9%
4 | COC(=O)c1ccc(Cn2c(C)c(C(=O)NCc3ccco3)sc2=O)o1 | inactive: 8.07%
5 | NCC1CC2c3ccccc3C1c1ccccc12 (configuration not stated) | inactive: 9.1%
6 | Cc1ccc(-c2nnc(SCC(=O)N/N=C/c3c(C)nn(-c4ccccc4)c3C)n2-c2ccc(C)cc2)cc1 | inactive: -8.89%
7 | CC(C)CN(C(=O)CCNC(=O)c1ccc(Cl)cc1)C1CCS(=O)(=O)C1 (configuration not stated) | inactive: -15%
8 | CC1(C(=O)Nc2cccc(NS(C)(=O)=O)c2)Cc2c(-c3ccc(C(N)=O)cc3)ccnc2O1 (configuration not stated) | inactive: 8.09%
9 | COc1cc(C(=O)NC2CC(C)(C)NC(C)(C)C2)cc(OC)c1OC | inactive: 8.96%
10 | NS(=O)(=O)c1ccc(CNC(=O)c2csc3c2CCCC3)cc1 | inactive: -3.47%
11 | O=C(Nc1ccc2c(c1)OCO2)C1CCN(Cc2cc3c(cc2O)OCO3)CC1 | inactive: -12.9%
12 | COc1cccc(-c2cnc(C(O)c3cc(C)ccc3C)[nH]2)c1 (configuration not stated) | inactive: 9.14%
13 | Cc1ccc(SCC(=O)NNC(=O)CNC(=O)c2ccc(Br)cc2)cc1 | inactive: -7.76%
14 | O=C(/C=C/c1cccs1)c1ccc(Br)cc1 | inactive: 7.96%
15 | COc1ccccc1NS(=O)(=O)c1ccc(C(=O)N2CCCCCC2)cc1 | inactive: -7.95%
16 | CC1(C(=O)NCc2cccc3ccccc23)CCN1Cc1ccc2ccccc2c1 (configuration not stated) | inactive: 8.2%
17 | CCCCOc1ccc(N(CC(=O)NCC2CCCO2)C(=O)CCC(=O)Nc2nccs2)cc1 (configuration not stated) | inactive: -22.8%
18 | COc1ccccc1CC(=O)Nc1ccc(C(=O)N2CCCCC2)cc1 | inactive: 3.2%
19 | CC(=O)NCCn1c(SCC(=O)NCCc2ccc(S(N)(=O)=O)cc2)nc2ccccc2c1=O | inactive: 11.6%
20 | O=C(CCn1c(=O)[nH]c2ccsc2c1=O)N1CCN(c2ccc([N+](=O)[O-])cc2)CC1 | inactive: -3.41%
21 | Cn1c(NCc2ccccc2)nc2cc(-c3cccc(C(F)(F)F)c3)sc2c1=O | inactive: 13.9%
22 | COC(=O)c1ccc(CSc2nnc(-c3ccc4c(c3)OCO4)n2-c2ccccc2)o1 | inactive: 8.44%
23 | Cc1cc(O)ccc1Nc1cc(-c2cccc(N)c2)ncn1 | inactive: 0.282%
24 | CCOC(=O)c1cc(-c2ccc(/C=C3/C(=O)N(c4ccc(C(=O)O)cc4)N=C3C)o2)ccc1Cl | inactive: 12.2%
25 | COc1ccccc1C(NC(C)=O)c1cc(Cl)c2cccnc2c1O (configuration not stated) | inactive: 3.32%
26 | CCOC(=O)/C(=C/c1cn(C)c2ccccc12)NC(=O)c1ccccc1 | inactive: 1.43%

Row | Compound | growth rescue (activation)
27 | COC(C(=O)N/N=C/c1ccc(OCC(=O)N2CCOCC2)cc1)c1ccccc1 (configuration not stated) | inactive: -0.266%
28 | COc1ccccc1CNC(=O)CCNC(=O)c1ccco1 | inactive: -16.8%
29 | COc1cccc(CN2CCC(C(=O)N3CCN(Cc4ccc5c(c4)OCO5)CC3)CC2)c1 | inactive: -26.7%
30 | CCOC(=O)c1csc(-c2ccc(OC)c(OC)c2)n1 | inactive: 13.6%
31 | N#CCOc1ccc(C2=NO[C@@H]3[C@@H]4C[C@@H]([C@H]5C(=O)N(c6ccc7c(c6)OCO7)C(=O)[C@@H]45)[C@H]23)cc1 | inactive: 6.77%
32 | CCCN1Cc2cccc(C(=O)N3CCN(c4ccc(OC)cc4)CC3)c2C1=O | inactive: -5%
33 | COc1ccc(Cn2c(=O)[nH]c3cc(C(=O)N4CCN(c5ccc(C(C)=O)cc5)CC4)ccc3c2=O)cc1 | inactive: -6.8%
34 | COCCn1c(C)cc(C(=O)Cn2nc(C(=O)O)c3ccccc3c2=O)c1C | inactive: 11.3%
35 | COc1cccc(C(=O)N2CCC(N3CC(C)OC(C)C3)CC2)c1 (configuration not stated) | inactive: 5.06%
36 | Cn1c(=O)c2c(ncn2CC(=O)N/N=C/c2ccc(Br)s2)n(C)c1=O | inactive: 2.12%
37 | CCOc1cc(/C=N/NC(=O)CSc2cccc3cccnc23)ccc1O | inactive: -1.21%
38 | Cc1ccc(NC(=S)N2CCCN(Cc3ccc(F)cc3)C2)c(C)c1 | inactive: 8.3%
39 | COc1cc(/C=N/N=C(\N)c2nonc2N)ccc1O | inactive: -13.5%
40 | C[C@H](N)c1nnc(SCC(N)=O)o1 | inactive: -12.8%
41 | CCOC(=O)c1cc(C)sc1NC(=O)CN1CCN(C(=O)c2ccco2)CC1 | inactive: 7.15%
42 | CC1CCN(Cc2c(C(=O)N/N=C/c3cc(Cl)ccc3O)nnn2-c2nonc2N)CC1 | inactive: 12.8%
43 | N#Cc1ccc(NC(=O)c2cc(-c3cccs3)on2)cc1 | inactive: -4.29%
44 | COC(=O)/C(C#N)=C1/C=Cc2ccccc2N1 | inactive: 22.7%
45 | COc1ccc(CC(=O)Nc2nc3n(n2)C(c2ccccc2)CC(=O)N3)cc1OC (configuration not stated) | inactive: -4.85%
46 | NC(=O)c1ccc(S(=O)(=O)N2CCSCC2)cc1 | inactive: 4.58%
47 | Oc1ccc(/C=N/Nc2cc(N3CCOCC3)nc(N3CCOCC3)n2)cc1O | inactive: 3.89%
48 | Cc1ccc(-c2ccc(CO)o2)cc1N | inactive: 16.3%
49 | Cn1c(=O)c2[nH]c(N3CCN(c4cccc(O)c4)CC3)nc2n(C)c1=O | inactive: 9.03%
50 | Cc1onc(-c2c(F)cccc2Cl)c1C(=O)NC1CCCCCC1 | inactive: 8.68%
51 | O=C(Nc1ccc2c(c1)OCO2)c1ccc2nc([C@@H]3O[C@H](CO)[C@H](O)[C@H](O)[C@H]3O)[nH]c2c1 | inactive: -9.3%
52 | CC(=O)c1ccc(NC(=O)C2CCCN(S(=O)(=O)c3c(C)[nH]c(=O)[nH]c3=O)C2)cc1 (configuration not stated) | inactive: -2.51%

Row | Compound | growth rescue (activation)
53 | CCc1ccc(CN(C)CC(=O)Nc2ccccc2[N+](=O)[O-])cc1 | inactive: 19.7%
54 | CN(C)CC1CCCCC1OC(=O)c1ccc(S(=O)(=O)N(C)c2ccccc2)cc1 (configuration not stated) | inactive: 1.8%
55 | COCCNC(=O)CCn1nc(-c2ccc(C)cc2)c2ccccc2c1=O | inactive: 10.2%
56 | CC1(C)C(C(=O)O)N2C(=O)C(NC(=O)Cc3ccccc3)C2S1=O (configuration not stated) | inactive: 5.76%
57 | CCN(CC)S(=O)(=O)c1cccc(C(=O)N/N=C/c2cc(OC)c(O)c(OC)c2)c1 | inactive: -26.8%
58 | O=C(N/N=C/c1cccnc1)/C(=C\c1cccs1)NC(=O)c1ccccc1 | inactive: 4.8%
59 | Cc1cccc(N2CC(C(=O)O)CC2=O)c1C (configuration not stated) | inactive: 10.1%
60 | CC(=O)Nc1ccc(C(=O)CN2C(=O)NC3(CCCCCC3)C2=O)c(F)c1 | inactive: 19.5%
61 | CC(C(N)=O)N1c2cccc3cccc(c23)S1(=O)=O (configuration not stated) | inactive: 0.127%
62 | CCCCN(C(=O)CCC(=O)Nc1cc(C)on1)C(C(=O)NC1CCCC1)c1ccc(OCC)cc1 (configuration not stated) | inactive: 3.72%
63 | C=CCN1C(=O)C(CC(=O)Nc2ccccc2)N(Cc2ccccn2)C1=S (configuration not stated) | inactive: 9.18%
64 | CC(C)C1CC(CCN)(Cc2ccccc2)CCO1 (configuration not stated) | inactive: -33.3%
65 | O=C(CN1CCC(NC(=O)Nc2ccccc2)CC1)Nc1ccccc1F | inactive: 0.367%
66 | COC(=O)Cc1ccc(N(Cc2ccccc2F)S(=O)(=O)c2ccc(C)cc2)cc1 | inactive: -10.8%
67 | COc1ccc(NS(=O)(=O)c2cc(NC(=O)c3cnccn3)ccc2N2CCCC2)cc1 | inactive: 11.6%
68 | CCOC(=O)c1cc(C(=O)NN)c(=O)[nH]c1C | inactive: -8.26%
69 | COc1cccc(C(c2ccccc2)N2C3CCC2CN(S(=O)(=O)c2ccc(F)cc2)CC3)c1 (configuration not stated) | inactive: 9.26%
70 | O=C(NC(=S)N1CCN(c2ccc([N+](=O)[O-])cc2)CC1)c1ccc(F)cc1 | inactive: 2.73%
71 | CC(CC(=O)NCc1ccc(F)cc1)c1ccccc1 (configuration not stated) | inactive: 27%
72 | NS(=O)(=O)c1ccc(CCNC(=O)c2cc(-c3cccs3)nc3ccccc23)cc1 | inactive: -1.21%
73 | CCOC(=O)c1c(NC(=O)c2ccc(C)c(C)c2)sc2c1CCCCC2 | inactive: -2.53%
74 | CCCCn1c(=O)c(CCC(=O)OCC(=O)Nc2cc(Cl)ccc2OC)nc2ccccc21 | inactive: 9.41%
75 | CCOC(=O)c1cc2nc(Nc3ccc(OC)cc3)sc2s1 | inactive: 17.8%
76 | COc1ccc(-c2cc(C(=O)NCC3CCCO3)c3cc(C)ccc3n2)cc1 (configuration not stated) | inactive: -4.09%
77 | CC(C)(C)NC(=O)C(c1ccc(O)cc1)N(Cc1ccccc1)C(=O)CCC(=O)Nc1nccs1 (configuration not stated) | inactive: 3.85%
78 | CC(=O)Nc1ccc(-c2ccnc3c2CC(C(=O)NCCc2ccccc2)O3)cc1 (configuration not stated) | inactive: 10%

Row | Compound | growth rescue (activation)
79 | C/C(=N\Nc1ccc(C)c(Cl)c1)c1ccncc1 | inactive: -10.4%
80 | CCOc1ccc(S(=O)(=O)Nc2ccc3c(c2)n(C)c(=O)n3C)cc1 | inactive: 6.61%
81 | COc1cc2c(cc1OC)C(C(=O)Nc1ccc3c(c1)OCCO3)C1c3ccccc3CCN1C2=O (configuration not stated) | inactive: 20.8%
82 | O=C(CSc1nnc2c(n1)[nH]c1ccccc12)N1CCCCC1 | inactive: -2.24%
83 | N#Cc1cc([N+](=O)[O-])ccc1N1CCCC1 | inactive: 25.4%
84 | COc1ccc(CCN2C(=O)CC(Cc3ccc(Br)cc3)C2=O)cc1OC (configuration not stated) | inactive: 17.1%
85 | CCN(CC)CCN1c2ccccc2Sc2ccccc21 | inactive: 6.37%
86 | COc1ccc(Cl)cc1C(=O)Nc1ccc(OCC(=O)N2CCOCC2)cc1 | inactive: -3.93%
87 | O=C(Nc1ccccc1)N1CCCc2ccccc21 | inactive: 29.3%
88 | OC1CCN(c2cc(-c3ccccc3)nc3cc(-c4ccc(F)cc4)nn23)CC1 | inactive: 21.1%
89 | CC(CC(=O)Nc1ccc(Cl)c(S(=O)(=O)N2CCOCC2)c1)c1ccccc1 (configuration not stated) | inactive: 11.6%
90 | Cc1cc(C(=O)Nc2sccc2C(N)=O)c(C)o1 | inactive: -27.9%
91 | Cc1ccc(S(=O)(=O)N2CCCC2)cc1C(=O)NCc1ccccn1 | inactive: 3.01%
92 | CCc1ccc(C(=O)OCC(=O)c2c(N)n(CC(C)C)c(=O)n(C)c2=O)cc1 | inactive: 8.62%
93 | Cc1ccc(-c2n[nH]c(=O)c3ccccc23)cc1S(=O)(=O)NCC1CCCO1 (configuration not stated) | inactive: 2.73%
94 | COc1cc(C(C(=O)NC2CCCC2)N(C(=O)c2snc(C(N)=O)c2N)c2ccccc2)cc(OC)c1OC (configuration not stated) | inactive: -7.62%
95 | Cc1ccc(-c2noc(-c3nnn(CC(=O)Nc4cc(Cl)ccc4C)c3N)n2)cc1 | inactive: 12.8%
96 | O=C(CCS(=O)(=O)CCN1CCOCC1)NCNC(=O)CCS(=O)(=O)CCN1CCOCC1 | inactive: 3.33%
97 | COc1ccc(S(=O)(=O)N2CCN(C)CC2)cc1NC(=O)c1ccccc1F | inactive: 4.37%
98 | CC(C)CC(=O)Nc1ccc(C(=O)Cn2nc(C(=O)O)c3ccccc3c2=O)cc1 | inactive: 5.4%
99 | CCC(C)NC(=O)COC(=O)c1cc([N+](=O)[O-])ccc1Sc1nc(C)cs1 (configuration not stated) | inactive: 8.19%
100 | O=C(COC(=O)c1ccc(Cl)c(S(=O)(=O)N2CCCCCC2)c1)Nc1ccccc1 | inactive: 28.6%
101 | COc1ccc(C2CC(=O)C=C(O)C2)cc1 (configuration not stated) | inactive: -17%
102 | CCc1cccc(CC)c1NC(=O)COC(=O)CC1c2ccccc2CCN1S(=O)(=O)c1ccccc1 (configuration not stated) | inactive: 19%
